# The campaign covered roughly 310,000 compounds. About 14,000 (4.5%) showed an effect of 50% or more. The effect is printed as a negative number. The list shows a part of the results.
# Molecular target: human ether-à-go-go-related gene (hERG) potassium channel (human, UniProt Q12809)
# Experiment: primary screen, population patch clamp on CHO cells stably expressing hERG
# 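Further: peak tail current of the secondary pulse compared with the same well before compound.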
# human ether-à-go-go-related gene (hERG) potassium channel, sequence (Q12809 whole entry, looked up): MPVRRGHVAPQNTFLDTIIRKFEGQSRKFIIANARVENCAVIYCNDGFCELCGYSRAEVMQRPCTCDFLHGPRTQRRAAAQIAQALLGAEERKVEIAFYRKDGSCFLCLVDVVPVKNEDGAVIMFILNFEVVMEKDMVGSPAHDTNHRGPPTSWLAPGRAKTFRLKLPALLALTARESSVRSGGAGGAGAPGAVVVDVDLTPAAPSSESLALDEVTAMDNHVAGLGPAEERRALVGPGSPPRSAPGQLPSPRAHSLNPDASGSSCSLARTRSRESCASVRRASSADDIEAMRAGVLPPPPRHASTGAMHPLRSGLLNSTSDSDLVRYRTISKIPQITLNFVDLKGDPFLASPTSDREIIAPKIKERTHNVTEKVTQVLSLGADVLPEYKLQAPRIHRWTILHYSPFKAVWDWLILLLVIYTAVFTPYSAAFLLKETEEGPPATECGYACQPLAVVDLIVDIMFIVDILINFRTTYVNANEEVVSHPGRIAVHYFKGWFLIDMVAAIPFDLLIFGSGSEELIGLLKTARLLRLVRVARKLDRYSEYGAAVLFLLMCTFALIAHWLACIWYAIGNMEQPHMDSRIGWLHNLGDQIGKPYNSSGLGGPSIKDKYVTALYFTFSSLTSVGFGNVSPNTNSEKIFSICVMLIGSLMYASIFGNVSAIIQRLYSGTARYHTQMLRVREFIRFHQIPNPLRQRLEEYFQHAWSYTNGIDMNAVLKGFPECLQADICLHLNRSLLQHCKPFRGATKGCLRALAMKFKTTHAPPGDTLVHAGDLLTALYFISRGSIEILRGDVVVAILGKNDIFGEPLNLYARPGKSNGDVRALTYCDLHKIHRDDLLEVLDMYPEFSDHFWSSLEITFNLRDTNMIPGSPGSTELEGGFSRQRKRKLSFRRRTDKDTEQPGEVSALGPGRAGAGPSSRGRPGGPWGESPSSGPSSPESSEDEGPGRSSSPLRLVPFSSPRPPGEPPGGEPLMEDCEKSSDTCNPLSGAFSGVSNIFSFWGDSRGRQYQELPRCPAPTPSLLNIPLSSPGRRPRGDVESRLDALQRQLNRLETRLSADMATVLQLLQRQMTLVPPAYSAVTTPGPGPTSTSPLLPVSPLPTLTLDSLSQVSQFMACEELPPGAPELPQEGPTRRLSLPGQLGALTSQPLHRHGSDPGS
row,Structure (SMILES),"hERG current change (%, negative = inhibition) at 10uM [%]"
1,CCc1ccc(/C=N/NC(=O)c2c[nH]c3ccccc23)s1,-19.1
2,O=C(NCC(c1ccco1)N1CCc2ccccc2C1)C(=O)Nc1ccccc1F (centres unmarked),8.09
3,CCCCN(C)S(=O)(=O)c1cc(Br)cc2c1N(C(=O)C1CC1)CC2,-51.6
4,Cc1cc(C)c(O)c(C2(O)C(=O)c3ccccc3C2=O)c1,6.77
5,O=C(Cc1ccccc1F)Nc1ccc2c(c1)CCC2,6.59
6,O=C(CN1CCOCC1)Nc1ccc(NC(=O)c2ccccc2F)cc1,10.7
7,O=C1CC(c2ccccc2)CN1C(=O)c1cccc([N+](=O)[O-])c1 (centres unmarked),-4.87
8,CCC1(CC)NC(=O)N(CC(=O)OCC(=O)Nc2ccc(OC(F)(F)F)cc2)C1=O,-25.2
9,O=C1NC(=O)[C@]2(Cc3ccccc3N3CCN(c4ccccc4)CC32)C(=O)N1Cc1ccccc1 (some centres unmarked),-3.82
10,Cc1c(/C=C/C(=O)c2cccs2)cnn1C,-0.723
11,Nc1cccc2c1C(=O)N(C(=O)c1cccc(S(=O)(=O)N3CCCCCC3)c1)C2=O,-9.14
12,Cc1ccc(-c2nnc3sc(CCc4ccccc4)nn23)cc1,6.39
13,O=C(O)COc1ccccc1/C=C1\SC(=S)N(c2cccnc2)C1=O,-10.1
14,COc1ccc(C(CCN2CCCC(C)C2)c2c(OC)cc(OC)c3c(C)cc(=O)oc23)cc1 (centres unmarked),-74.3
15,COc1ccc(CCN2C(=O)C3C4C=CC(C3C2=O)C2C(=O)N(CCc3ccc(OC)c(OC)c3)C(=O)C42)cc1OC (centres unmarked),-20.2
16,COc1ccc(CC2C(=O)N(C)C(=O)N(C)C2=O)c(OC)c1,19.6
17,CN1CCN(c2ccc(C(F)(F)F)cc2NC(=O)Nc2ccccc2)CC1,-17.2
18,COc1cccc(CNCc2cc(OC)cc(OC)c2)c1.O=C(O)C(=O)O,-12.6
19,O=S(=O)(c1ccc(F)cc1)c1nc(-c2ccco2)oc1Nc1ccc(F)cc1,-18.8
20,CCc1nc(NCCC(C)C)c(C#N)c2c1CCCC2,23.4
21,CCc1ccc(C2=NNC(=Nc3c(C)n(C)n(-c4ccccc4)c3=O)SC2)cc1,34.4
22,O=C(CN1C(=O)c2ccccc2C1=O)OCC(=O)N1CCc2ccccc2C1,-17.2
23,C=CCNc1nc2c(c(=O)[nH]c(=O)n2C)n1CCOc1ccccc1,-29.6

row,Structure (SMILES),"hERG current change (%, negative = inhibition) at 10uM [%]"
1,COc1cccc(NC(=O)CN(C)C(=O)c2ccc(NS(=O)(=O)c3ccc(F)cc3)cc2)c1,-7.97
2,O=C(O)CCc1nc2cc(Cl)ccc2n(Cc2ccccc2)c1=O,22.2
3,CCOc1ccc(C(=O)NC2CCN(C(=O)N3CCCC3)CC2)cc1,2.08
4,Cc1[nH]c2ccccc2c1-c1nc(N)sc1C,19.7
5,Cc1c(Cl)cccc1NC(=S)NCC1COc2ccccc2O1 (centres unmarked),11.9
6,N#Cc1ccc(C2=CC(=O)C[C@H](c3ccc(Cl)cc3)C2)cc1,-71.9
7,COc1ccc(OC)c2sc(NC(=O)C3CC3)nc12,-5.76
8,CCOC(=O)Cn1c(=NC(=O)c2cccs2)sc2cc(C(=O)OC)ccc21,17.4
9,O=C(c1cccc(NS(=O)(=O)c2cccc(F)c2)c1)N1CCN(c2ccccc2)CC1,-8.41
10,CCCOc1ccc(CSc2ncn[nH]2)cc1,-4.54
11,CCOC(=O)C1CCCN(C(=O)/C=C/c2ccc(Cl)cc2)C1 (centres unmarked),-59.9
12,Cc1ccc(N(CC(=O)N2CCCCCC2)S(C)(=O)=O)cc1Cl,9.84
13,C1CCN(c2nc3nonc3nc2N2CCCCC2)CC1,-4.04
14,COc1ccccc1-n1nnnc1SCc1ccccc1,-13.7
15,COc1ccc(S(=O)(=O)NN(C)C(=O)c2nn(-c3ccccc3)ccc2=O)cc1,-17
16,COC(=O)C1=C(C(=O)OC)[C@@H]2N(C)c3ccccc3[C@@]23C[C@@H](C(=O)OC)N(C(C)=O)C3=N1,0.626
17,COc1cc(C)c(S(=O)(=O)N2CCOCC2)cc1C,7.75
18,CCCC1CCC(=NNC(=O)CNc2ccc(OC)cc2)CC1 (centres unmarked),4.71
19,O=C(c1cc2n(n1)C(C(F)(F)F)CC(c1ccc(Cl)cc1)N2)N1CCCC1 (centres unmarked),0.915
20,C=CCOCCN1C(=O)C2C3C=CC(C2C1=O)C1C2C(=O)N(CCOCC=C)C(=O)C2C31 (centres unmarked),-17.2
21,CN(C)CCc1c[nH]c2ccc(Cn3cncn3)cc12.O=C(O)c1ccccc1,-5.06
22,Cc1cc(C)c(NC(=O)Nc2ccc3c(c2)OCO3)c(C)c1,18
23,Cc1cccc(NC(=O)C2CC(=O)N(c3ccccc3)C2)c1C (centres unmarked),6.13

row,Structure (SMILES),"hERG current change (%, negative = inhibition) at 10uM [%]"
1,COC(=O)C1=C(c2ccc(F)cc2F)C[C@@H]2CC[C@H]1N2C(=O)NCCOc1ccccc1,-23.5
2,O=C(COc1ccccc1)Nc1nc2ccccc2[nH]1,14.1
3,COC(=O)c1nn(-c2ccccc2)c(Sc2ccccc2)c1/C=N/O,8.24
4,COc1ccc(C(=O)NCCSc2ccccc2)cc1OC,-11
5,Cc1ccccc1OCCC(=O)OCC(=O)Nc1ccc2[nH]c(=O)[nH]c2c1,3.11
6,COc1ccc(N=CC2=C(O)CC(C)(C)CC2=O)cc1OC,10.9
7,NCCc1nc2ccccc2s1,30.8
8,COc1cc(C)c(NC(=O)COc2ccc3c(c2)OCO3)cc1C,14.6
9,Cc1cc(C)c(C#N)c(SCC(=O)NC2CC2)n1,9.6
10,CC(C)(C)NC(=O)c1ccc2c(c1)C(=O)N(Cc1ccco1)C2=O,8.85
11,CCOC(=O)c1[nH]c(C)c(CCC(=O)OC)c1C,7.41
12,O=C(CSc1nc2ccccc2c(=O)[nH]1)Nc1cccc([N+](=O)[O-])c1,15.3
13,CN(Cc1cc(-c2ccccc2)on1)C(=O)c1cc(COc2c(F)cccc2F)on1,3.7
14,CC(CC(=O)N(C)c1c(N)n(Cc2ccccc2)c(=O)[nH]c1=O)c1ccccc1 (centres unmarked),-23.3
15,Cc1cc(C)n(-c2nc(C)nc3sc4c(c23)CCC(C)C4)n1 (centres unmarked),-4.75
16,O=C(OCC(=O)N1CCc2ccccc21)c1cccnc1Cl,7.79
17,Cc1nnc(NC(=O)c2cccc(S(=O)(=O)N3CCOCC3)c2)s1,7.89
18,O=C(O)c1cc(-c2ccc(/C=N/N3C(=O)C4C5C=CC(C6CC56)C4C3=O)o2)ccc1Cl (centres unmarked),16.4
19,COc1ccc(-c2cc3ccc(OCC(=O)NCC4CCC(C(=O)O)CC4)cc3oc2=O)cc1 (centres unmarked),2.02
20,CCOC(=O)c1sc(NC(=O)COC(=O)Cn2cnc3ccccc32)c(C(=O)OCC)c1C,10.1
21,C=CCn1c(CSc2nc3ccccc3s2)nnc1SCC(=O)NCc1ccccc1,-43.9
22,COc1ccc(C(C)=O)cc1COc1ccc(Cl)cc1Cl,3.09
23,C=CCc1cc(Cl)ccc1OCCOCCNC(C)(C)C.O=C(O)C(=O)O,-49.5

row,Structure (SMILES),"hERG current change (%, negative = inhibition) at 10uM [%]"
1,COC(=O)c1c(C)oc(C)c1S(=O)(=O)NC(C)(C)C,0.959
2,C=CCn1cc(C(=O)N2CCN(C)CC2)c(=O)c2cc(S(=O)(=O)N3CCCC3)ccc21,8.69
3,CSc1ccccc1OCc1cc(C(=O)N2CCc3c(Cl)cccc3C2)no1,5.8
4,Cc1c(C)c2ccc(OCC(=O)N3CCC(C(=O)O)(c4ccccc4)CC3)c(C)c2oc1=O,14.9
5,Nc1ccc2c(c1)ncn2CCCn1cnc2cc(N)ccc21,-14.7
6,c1cnc2nc(CSc3ncn[nH]3)cn2c1,7.08
7,Brc1cccc(CN2CCN(c3ncccn3)CC2)c1,11.7
8,O=C(N1CCN(c2ccccc2)CC1)C(F)(F)C(F)F,-12.6
9,COc1ccccc1-n1cnc2cc(NCc3cccs3)ccc21,-29.1
10,CCOc1ccc(NC(=O)CSc2nnc(C3CC3)n2C)cc1,25.9
11,Cc1cccc2sc(NC(=O)Cn3cccc3)nc12,-15.5
12,CCCn1c(=O)c2ccccc2n2c(SCc3c(C(=O)OCC)oc4ccccc34)nnc12,-43.5
13,Cc1ccc(S(=O)(=O)NNC(=O)c2cc(C)cs2)cc1,13
14,Clc1cc(Sc2ccc(Br)cc2)nnc1-c1ccccc1,-10.8
15,CCOC(=O)C1CCCCN1C(=O)CCn1nnnc1CN1CCOCC1 (centres unmarked),18.9
16,COc1ccc(NC(=O)c2ccco2)cc1NC(=O)c1cccc(OC(C)C)c1,-96.7
17,CCOCN(C(=O)CCl)c1c(C)cccc1CC,-2.83
18,O=S(=O)(c1cccc2cccnc12)N1CCN(c2ccccn2)CC1,2.46
19,CC(C)C(c1nnnn1Cc1ccccc1)N1CCC(C(N)=O)CC1 (centres unmarked),-3.23
20,CC/C(=N\NC(=O)CSCc1ccccc1Br)c1ccc2c(c1)OCCO2,5.26

# From publication PMC4336329 (PLoS ONE, 2015)
